Assay results reported in PubChem BioAssay AID624330 (Southern Research Specialized Biocontainment Screening …, 2012).
Hit rate of the full screen: of about 340,000 compounds, about 2,100 (0.62%) were called active. This list was built around the results that the source calls inconclusive (neither active nor inactive); the mix of calls is not that of the screen.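 How the source made its calls: active means first-screen hits whose inhibition reached a set limit at any dose in the follow-up dose series; inconclusive means inhibition above the set first-screen limit but never retested; inactive means the rest.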

What follows are molecules tested against Rac GTPase-activating protein 1 (Homo sapiens) (UniProt Q9H0H5) (assay: blockers of MgcRacGAP-driven Rac1 GTP hydrolysis – biochemical, ADP Hunter fluorescence, primary and confirmatory, confirmation (AID 624330;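 further: fluorescence reports GDP produced by GAP-driven GTP hydrolysis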)). Conditions: MgcRacGAP-stimulated Rac1 GTP hydrolysis, at 30 µM, stronger effect = higher value, GST-tagged Rac1 F28L mutant substrate.
UniProt Q9H0H5, sequence (Q9H0H5 whole entry, looked up): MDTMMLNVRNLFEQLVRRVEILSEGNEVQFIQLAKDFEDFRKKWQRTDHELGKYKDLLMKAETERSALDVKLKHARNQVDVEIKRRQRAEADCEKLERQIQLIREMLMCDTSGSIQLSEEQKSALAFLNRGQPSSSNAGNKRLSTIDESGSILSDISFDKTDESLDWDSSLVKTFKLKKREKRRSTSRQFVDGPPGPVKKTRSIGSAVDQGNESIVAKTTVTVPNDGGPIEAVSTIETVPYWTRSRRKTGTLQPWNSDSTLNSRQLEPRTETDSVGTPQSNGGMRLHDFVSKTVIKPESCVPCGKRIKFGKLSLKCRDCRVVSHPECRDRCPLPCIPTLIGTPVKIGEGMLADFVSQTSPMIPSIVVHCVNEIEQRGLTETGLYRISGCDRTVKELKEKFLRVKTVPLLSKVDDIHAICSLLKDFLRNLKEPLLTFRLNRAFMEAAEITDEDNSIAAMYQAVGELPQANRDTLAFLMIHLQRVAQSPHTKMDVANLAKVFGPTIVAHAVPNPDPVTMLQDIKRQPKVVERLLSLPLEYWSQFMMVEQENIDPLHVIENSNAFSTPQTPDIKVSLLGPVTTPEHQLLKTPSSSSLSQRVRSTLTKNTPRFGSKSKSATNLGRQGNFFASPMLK

| Structure (SMILES) | inhibition |
| --- | --- |
| CCN(CC)c1ccc(/C=N/NC(=O)OC(C)(C)C)cc1 | inconclusive: 32.6% |
| CCC(=O)c1ccc(O)c(OC)c1 | inconclusive: 32.9% |
| C/C(=N\Nc1nc2ccccc2[nH]1)c1cc2ccccc2o1 | inconclusive: 33% |
| COc1cc2c(cc1[N+](=O)[O-])-c1ccccc1C2 | inactive: -0.68% |
| CCC(C)c1ccc(S(=O)(=O)N2CCN(CC(O)COCC3CCCO3)CC2)cc1 (stereo not given) | inconclusive: 34.8% |
| Nc1cc(Cl)c(N)cc1Cl | inconclusive: 83.3% |
| CC(C)(c1ccccc1)c1ccc(OCCCN2CCNCC2)cc1 | inconclusive: 34.9% |
| CC(=O)Oc1ccc(C(=O)OCC(=O)c2c(N)n(C)c(=O)n(C)c2=O)cc1OC(C)=O | inconclusive: 75.4% |
| COc1ccc(CCNCC(=O)Nc2ccc(C)c(S(=O)(=O)N(C)C)c2)cc1OC | inconclusive: 32.3% |
| Cc1cccc(-n2c(O)c(C=Nc3ccc(O)cc3)c3ccccc3c2=O)n1 | inconclusive: 130% |
| ClC(Cl)(c1nnnn1-c1ccccc1)c1nnnn1-c1ccccc1 | inconclusive: 39.9% |
| O=C(O)/C=C/c1ccc(O)cc1 | inconclusive: 48.9% |
| C(=N\Nc1nc2ccccc2[nH]1)/c1ccccc1 | inconclusive: 35.3% |
| Nc1nc(-c2ccco2)c(-c2ccco2)s1 | inconclusive: 35.6% |
| CN(C)c1ccc(NS(=O)(=O)c2cccc(Cl)c2)cc1 | inconclusive: 78.7% |
| CCN(C(=S)NC(=O)c1ccco1)c1cccc2ccccc12 | inactive: 15.5% |
| COc1cccc(C=Nc2ccc3c(c2)CCC3)c1O | inactive: 6.65% |
| COC(=O)N1CCN(c2ccc(Cl)c(Cl)c2)CC1 | inactive: 6.48% |
| OCCN(Cc1ccccc1)CC1CC=CCC1 (stereo not given) | inconclusive: 20% |
| COC(=O)/C(=C/Nc1cccc2ccccc12)[N+](=O)[O-] | inconclusive: 32.3% |
| CC(=O)Nc1ccc(S(=O)(=O)N2CCN(CC3CC4C=CC3C4)CC2)cc1 (stereo not given) | inconclusive: 34.6% |
| CNc1nn(-c2cccc(Cl)c2)nc1N | inconclusive: 84.3% |
| O=C(O)C1(C(=O)O)CCCC1 | inactive: 1.88% |
| CCOc1ccc(CNc2ncc(-c3ccccc3)n2C)cc1 | inconclusive: 32.8% |

| Structure (SMILES) | inhibition |
| --- | --- |
| C=Cc1ccc(C(=O)N2CCCC(Nc3ccc4c(c3)OCCO4)C2)cc1 (stereo not given) | inconclusive: 33.9% |
| Cc1ccc(-c2n[nH]c(=S)n2/N=C\c2ccco2)cc1 | inconclusive: 32.5% |
| COc1cccc2sc(Nc3nc4ccc(NC(C)=O)cc4s3)nc12 | inconclusive: 37.3% |
| Cc1ccc(S(=O)(=O)N(C(=O)c2ccco2)c2cc3sc(=O)oc3c3ccccc23)cc1 | inconclusive: 35.2% |
| CCOC(=O)C1=CN(Cc2cccc(-c3ccc(F)cc3)c2)S(=O)(=O)N(C)C1C (stereo not given) | inactive: 8.9% |
| O=C(Nc1ccccc1C(=O)N/N=C/c1ccco1)c1ccccc1 | inactive: 7.26% |
| CC(=O)Nc1cc(S(=O)(=O)Nc2ccc(C)cc2)c(C)cc1C | inactive: 11.6% |
| COc1ccc(N2CCN(C(=O)CN(c3ccccc3)S(C)(=O)=O)CC2)cc1 | inconclusive: 32.9% |
| COc1ccc2nc(Nc3sc4c(c3C(N)=O)CCCC4)sc2c1 | inconclusive: 33.3% |
| Cc1ccc(Nc2cc(C)nn2-c2nc(C)cc(=O)[nH]2)cc1 | inconclusive: 34.5% |
| Oc1ccc(CCNc2c3ccccc3nc3ccccc23)cc1O | inconclusive: 45.5% |
| COc1ccc(CCNCC(=O)Nc2ccc(OC(F)(F)F)cc2)cc1OC | inactive: 28.8% |
| COc1ccc(/C=N/NC(=O)c2ccoc2C)cc1O | inconclusive: 71.2% |
| Cc1cccc(CN2CCCC(C(=O)N3CCc4ccccc4C3)C2)c1 (stereo not given) | inconclusive: 33.1% |
| Cc1ccc(S(=O)(=O)NN=Cc2c(O)ccc3ccccc23)cc1 | inactive: 11.4% |
| Cc1ccc(OCCOCCN2CCN(C)CC2)c(C(C)(C)C)c1 | inconclusive: 32.5% |
| Nc1ccc2[nH]ncc2c1 | inconclusive: 35.6% |
| COc1ccc(NCCc2ccccn2)cc1 | inconclusive: 68.9% |
| COc1ccc(CCNC(=O)c2ccc3nc(-c4ccco4)c(-c4ccco4)nc3c2)cc1OC | inconclusive: 36.1% |
| COc1ccc(CN2CCc3c([nH]c4ccccc34)C2)c(OC)c1C | inconclusive: 32.1% |
| CCN(CC)CCNC(=O)c1cc2c(-c3ccc(Cl)cc3)nn(C)c2s1 | inconclusive: 36.6% |
| O=C(COc1cccnc1[N+](=O)[O-])c1ccc(Cl)s1 | inconclusive: 37.7% |
| C/C(=N/Nc1ccccc1C(=O)O)c1cccs1 | inconclusive: 59.6% |
| CN(C)c1nc(C(=O)O)nc(N2CCOCC2)n1 | inactive: 7.25% |

| Structure (SMILES) | inhibition |
| --- | --- |
| COc1ccc(/C=C(\C#N)C(=O)NCc2cccnc2)cc1OC | inactive: 0.52% |
| COc1cc(/C=N/NC(=O)NC2CCCCC2)ccc1O | inconclusive: 57.8% |
| COc1ccc(-c2csc(NC3OC(=O)c4c3ccc(OC)c4OC)n2)cc1OC (stereo not given) | inconclusive: 32.9% |
| CC(=O)N1CCN(c2nc(-c3ccco3)c3c(c2C#N)CC(C)(C)SC3)CC1 | inconclusive: 32% |
| Cc1cccc(C(=O)Nc2ccc(O)cc2)c1 | inconclusive: 99.4% |
| COc1ccc(NC(C)=O)c(C)c1 | inactive: -3.51% |
| COc1ccc(O)c(/C=N/n2c(-c3ccco3)csc2=Nc2cccnc2)c1 | inactive: 14.5% |
| O=C(CCc1ccccc1)n1nc(-c2ccccc2)nc1NCc1ccco1 | inactive: 7.46% |
| COc1ccc(CNc2ccc(C)c(C)c2)c(OC)c1OC | inconclusive: 32.8% |
| CCOc1ccccc1CNC(=O)C1CCN(c2nn3c(=O)cc(C)nc3s2)CC1 | inactive: 10.9% |
| CCCCN(CC)CCCNC(=O)CC1Oc2ccccc2NC1=O (stereo not given) | inactive: 0.11% |
| CC(C)n1c(=S)[nH]c2c1c(=O)[nH]c(=O)n2C | inconclusive: 41.7% |
| Oc1ccc(Nc2nc(-c3ccccc3F)nc3ccccc23)cc1 | inconclusive: 33.4% |
| COc1cc(CN2CCN(Cc3ccco3)CC2)cc(OC)c1 | inconclusive: 32.1% |
| CCN(CC)C(=O)CN1C(=O)C(=O)c2ccccc21 | inactive: 6.56% |
| COc1cc(/C=C(\C#N)C(=O)NCc2cccs2)ccc1O | inconclusive: 68.1% |
| COc1cc(/C=N/NC(=O)c2ccc(Cn3cc([N+](=O)[O-])cn3)o2)cc(Br)c1O | inconclusive: 33.5% |
| CC(=O)N1CCC(N(CCN2CCOCC2)C(=S)Nc2cc(C)cc(C)c2)CC1 | inactive: 9.32% |
| COc1ccc(N2CCN(c3nc4c(c(=O)n(C)c(=O)n4C)n3Cc3ccccc3)CC2)cc1 | inconclusive: 35.1% |
| O=C(Nc1nnc(C2CCCCC2)s1)C1CC(=O)N(c2ccc(F)cc2)C1 (stereo not given) | inactive: 3.31% |
| COc1ccc(-c2cccc([C@H]3[C@@H]4C=CCC[C@@]4(C)C(=O)N3Cc3ccccc3)c2)cc1 | inactive: 12.4% |
| CN(C)CCN(Cc1ccccc1)c1ccnc(N(C)C)c1C#N | inconclusive: 33.8% |
| Cc1ccc(-n2sc3ccccc3c2=O)cc1S(=O)(=O)N1CCCCC1 | inconclusive: 70% |
| Oc1ccccc1/C=N/n1c(-c2cccs2)n[nH]c1=S | inconclusive: 48.3% |

| Structure (SMILES) | inhibition |
| --- | --- |
| O=C(Nc1ccc(O)cc1)c1cc(S(=O)(=O)N2CCCC2)ccc1Cl | inconclusive: 67.5% |
| C/C(=N\Nc1nc2ccccc2[nH]1)c1ccc([N+](=O)[O-])cc1 | inactive: 9.3% |
| NC(=O)c1ccc(NC(=O)COC(=O)/C=C/c2ccc(Br)o2)cc1 | inconclusive: 35.4% |
| CCN(CC)c1ccc(SS(=O)(=O)O)cc1 | inconclusive: 32.5% |
| CCCCCC(=O)Nc1c2c(nc3ccccc13)CCC2 | inactive: 8.1% |
| Cc1ccc(C)c(S(=O)(=O)Nc2ccc(O)cc2)c1 | inconclusive: 44.3% |
| CCNc1nc(NCC)nc(N/N=C/c2ccc(O)c(OC)c2)n1 | inconclusive: 70.8% |
| Cn1c(=O)n(C)c2cc(N3CCCC3)c(NC(=O)c3cccc(F)c3)cc21 | inconclusive: 33.3% |
| OCCN1CCN(c2cc(-c3ccccc3)c3ccccc3n2)CC1 | inconclusive: 32.5% |
| COc1cc(/C=C2/C(=O)NN(c3ccc(Cl)c(Cl)c3)C2=O)cc([N+](=O)[O-])c1O | inconclusive: 37.7% |
| O=C1NC(=S)S/C1=C\c1ccc(SCc2ccco2)o1 | inconclusive: 92.9% |
| Cc1ccnc(NCc2cc(Cl)ccc2O)c1 | inconclusive: 32.5% |
| COc1cc(/C=N/Nc2nc3ccccc3[nH]2)cc(OC)c1O | inconclusive: 56.7% |
| Cc1ccc(CN2CCN(c3cccc4[nH]ccc34)CC2)cc1 | inconclusive: 41.4% |
| CC(=O)c1ccc(NC(=S)N2CCCC(CO)C2)cc1 (stereo not given) | inactive: 9.07% |
| CC(=O)c1ccc(NC(=O)c2ccc3nc(-c4ccco4)c(-c4ccco4)nc3c2)cc1 | inconclusive: 64.5% |
| COc1ccc(NS(=O)(=O)c2ccc3c(c2)[C@H]2C=CC[C@H]2[C@@H](c2ccc(C(=O)O)cc2)N3)cc1 | inconclusive: 32.3% |
| Oc1ccc(-c2cn3c(n2)SCC3)cc1O | inconclusive: 66.7% |
| COCCNC(=O)COc1cccc(Oc2ccccc2)c1 | inactive: 12.7% |
| O=C(/C=C/c1ccc(O)c(O)c1)OCCc1ccccc1 | inconclusive: 60.3% |
| O=C1NC(=O)/C(=C/c2ccc(O)cc2)S1 | inconclusive: 72.7% |
| O=C(Nc1ccc2c(c1)OCO2)C1CCCCC1 | inactive: 6.05% |
| N#Cc1c(N)oc(-c2ccco2)c1-c1ccco1 | inconclusive: 35.2% |
